From the RNAGym collection of RNA variant scans (doi:10.1073/pnas.2313332121) come the findings set out here.

The labels stand for the following.
B1: TPR 5TU (parent)
chain: GGAUCUUCUCGAUCUAACAAAAAAGACAAAUCUGCCACAAAGCUUGAGAGCAUCUUCGGAUGCAGAGGCGGCAGCCUUCGGUGGCGCGAUAGCGCCAACGUUCUCAACUAUGACACGCAAAACGCGUGCUCCGUUGAAUGGAGUUUAUCAUG

This sample is rich in variants without activity. Some results are limits rather than exact numbers.

The variants in this series derive from B1. In words: polymerase ribozyme fitness, log enrichment relative to wild type (log ratio); higher = more active; in vitro selection for triplet polymerase activity. Put shortly:
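Libraries of mutants in each subunit of a heterodimeric triplet polymerase ribozyme were generated by PCR and transcribed. In triplicate, each went through one in vitro selection round: annealing with biotinylated primer, partner subunit and triplets; frozen incubation at −7 °C; gel excision of extended constructs; streptavidin-bead capture; RT-PCR. Fitness, taken from Illumina sequencing of input and output libraries, is the logarithm of a genotype's enrichment over wild-type enrichment, averaged across replicates with inverse-variance weights. The logarithm is base 2, and genotypes needed ≥10 input reads and ≥1 read per output to be kept.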
With A12U G84U, the “polymerase ribozyme fitness (log ratio)” value is -1.97.
The result for C14A A49C reads at most -4.2; that for U13G G50U A52U G59C A89G A110C U151G, at most -4.2.
Consider C14G C32U G48A C103U U127C, for which the “polymerase ribozyme fitness (log ratio)” value is at most -4.2.
As for U13A A17U U31G G59A C95U A110U A137G G140U G141U, the figure is at most -4.2.
As for A12U C38G A113C U134C, the figure is at most -4.2; as for A12U C43A G83A A89U C105U A107G, at most -4.2; as for U13C C14A A20U C38A C96A A110G, at most -4.2.
The result for A12U C38U U77C A98G G124C reads at most -4.2; that for U13A G42A A49U U61A G88U A91G G100U G141C, at most -4.2; that for C14G A29U A60G A64G C85U U145G, at most -4.2.
With A12G U55A, the “polymerase ribozyme fitness (log ratio)” value was found to be 0.668.
Turning to A12G U55G, the “polymerase ribozyme fitness (log ratio)” value is -2.
As for C14A U102G, the figure is at most -4.2.
As to C14G A21U A30U U31C, the “polymerase ribozyme fitness (log ratio)” value was at most -4.2.
As for C14A C125A, the figure is -1.75; as for U13A C38A U61A C69G A73C A91C C95G U144C, at most -4.2.
As for A12U G88C C114U, the figure is at most -4.2; as for U13G A37G C87A G143A, at most -4.2.
Regarding U13G G136A A137G C149U, the “polymerase ribozyme fitness (log ratio)” value was -3.07.
As for U13C G48A C69U G81U C96G C116U A122U G141A, the figure is at most -4.2; as for C14A A66U G68A C72G G92U, at most -4.2; as for A12G U31A C32G C43U A47C C123U, at most -4.2.
The result for A12G C87A A89G A119U C123A G126U U134C G141U U151G reads at most -4.2.
As for C14A C69A G71C C79U G83C U90C, the figure is at most -4.2.
On to A12G G83C, for which the “polymerase ribozyme fitness (log ratio)” value was -0.586.
As for A12G U61A C76A A106G, the figure is -3.97; as for C14G A26G U53C U77G G86U U111C C114A A137G, at most -4.2; as for U13C C36A G100A A122G C123A, at most -4.2.
As for U13A C14G A17U U31A C35A A41C U104G, the figure is at most -4.2; as for A12U C35U A91G, -3.67.
As for U13C A28G A66G U104G A113G U145G, the figure is at most -4.2; as for C14G A52G C75U C85U U144C, -3.71.
With C14G A23C C32U C96U, the “polymerase ribozyme fitness (log ratio)” value is -4.1.
As for A12U C27U A73U C96G A97U A107G, the figure is at most -4.2.
The result for U13G A40U A60C C99G G100C reads at most -4.2; that for C14A A17G C35U A47C U61A C96U A110G, at most -4.2; that for U13A G58C G94A C108G C114G, at most -4.2.
As for C14A C35A C63U U102G, the figure is at most -4.2; as for U13G A40C C96G A119G, -1.98; as for C14A A29U C96A U101G G133C U144C, at most -4.2.
With U13C A20U A52G G80C A91G A121U, the “polymerase ribozyme fitness (log ratio)” value was at most -4.2.
As for C14G A19C A20C G25A U82G A91U, the figure is at most -4.2; as for C14A U15G A16U A40C A52C G88U G92A A97G, at most -4.2; as for A12G U13C G86U C96U C125U A142C, at most -4.2.
The result for C14G C18U reads -1.18.
Turning to C14A G50U C69G U134A A147C, the “polymerase ribozyme fitness (log ratio)” value was at most -4.2.
The result for A12U U45A U55G A66G U78C G88U C95G A137U reads at most -4.2; that for C14G A37U C63U C105G, at most -4.2.
The result for A12U A17G C57A A98U reads -0.729.
As for U13G G48C G81A C96A, the figure is at most -4.2; as for C14A C35A A49C G70C A97G A98C G117U A138G, at most -4.2; as for C14G A17C U78G, at most -4.2.
On to U13G A17G A19C A49C C51U G74U G143C, for which the “polymerase ribozyme fitness (log ratio)” value was at most -4.2.
As for U13G A28C A41G C54A C75A U82A A91U G141A U151G, the figure is at most -4.2.
As for U13G C35U C54A U56C C93A U102G, the figure is at most -4.2.
The result for A12U C14G U53G U77C C103G G126U G141A reads at most -4.2.
Regarding A12G C79U G86C A120G C125U, the “polymerase ribozyme fitness (log ratio)” value was at most -4.2.
The result for A12G G46C G83A C85G C131A reads at most -4.2.
For A12U G88U G92C U130A U145C, the “polymerase ribozyme fitness (log ratio)” value was at most -4.2.
As for A12G G80C G81C C118U U135A, the figure is -1.66.
The result for A12U G58U G83A C93A reads at most -4.2; that for U13C A16U, -0.079.
As for U13G C14G U31A A41C G86A U90G G100A C131A, the figure is at most -4.2; as for U13G A29C U77G G83U A91C A121G, at most -4.2.
For the variant C14A A49G G92C A107G G136U A142U, the “polymerase ribozyme fitness (log ratio)” value is at most -4.2.
C14A A19C C27U C51G C93A U134A U146G: the “polymerase ribozyme fitness (log ratio)” value is at most -4.2.
As for U13G G50U A52C U55A C87U A107G A137C, the figure is at most -4.2; as for C14G A37C G70A A106G G126U, at most -4.2; as for C14G A40G A41C C54U C85G C99U, at most -4.2.
As for U13A C36A G50A C79U C96A, the figure is at most -4.2.
The result for A12G U55A U61G C72U C93U reads at most -4.2.
In the case of U13A C87A C93A C95G A121U U127G G140A, the “polymerase ribozyme fitness (log ratio)” value was at most -4.2.
As for C14G C32G C35A G84C C123A, the figure is at most -4.2; as for C14A C27G C54U A73U G84U C114A, at most -4.2.
As for C14G A47U A52G G117U G126U, the figure is at most -4.2; as for A12U C87U A119U, -1.23.
As for C14G A30U C36U A39C C93A A147C, the figure is at most -4.2.
U13A A19U C75U U78C G80C A150G: the “polymerase ribozyme fitness (log ratio)” value is at most -4.2.
In the case of A12U A23C C54G U55G C79A G83U G92A G124C U145A, the “polymerase ribozyme fitness (log ratio)” value is at most -4.2.
The result for U13G A17C A21C G62A C75U A97U A107G A119U reads at most -4.2; that for U13G U44G C87A C96U C108G A110U, at most -4.2.
With A12U U135A G136C U146G, the “polymerase ribozyme fitness (log ratio)” value is at most -4.2.
The result for A12U C54U G59C A60G U144G reads -0.245.
